Data published in PubChem BioAssay AID1468 (National Center for Advancing Translational Sciences (NCATS), 2008).
Out of some 280,000 compounds screened, about 1,100 (0.39%) were called active. Inconclusive means that the source gave no clear call. Such entries were picked first, then a sample of the others. Calls follow the shape of the dose curve; as a rule, active = well fitted inhibition curve with a large enough effect; inconclusive = small, poorly fitted or top-dose-only effect, or effect the other way; inactive = flat fitted curve, though single readings scatter. Potencies of inconclusive entries are left out as doubtful fits.

Biological target: Microtubule-associated protein tau (Homo sapiens) (UniProt P10636)
Chain of UniProt P10636 (P10636 whole entry, looked up): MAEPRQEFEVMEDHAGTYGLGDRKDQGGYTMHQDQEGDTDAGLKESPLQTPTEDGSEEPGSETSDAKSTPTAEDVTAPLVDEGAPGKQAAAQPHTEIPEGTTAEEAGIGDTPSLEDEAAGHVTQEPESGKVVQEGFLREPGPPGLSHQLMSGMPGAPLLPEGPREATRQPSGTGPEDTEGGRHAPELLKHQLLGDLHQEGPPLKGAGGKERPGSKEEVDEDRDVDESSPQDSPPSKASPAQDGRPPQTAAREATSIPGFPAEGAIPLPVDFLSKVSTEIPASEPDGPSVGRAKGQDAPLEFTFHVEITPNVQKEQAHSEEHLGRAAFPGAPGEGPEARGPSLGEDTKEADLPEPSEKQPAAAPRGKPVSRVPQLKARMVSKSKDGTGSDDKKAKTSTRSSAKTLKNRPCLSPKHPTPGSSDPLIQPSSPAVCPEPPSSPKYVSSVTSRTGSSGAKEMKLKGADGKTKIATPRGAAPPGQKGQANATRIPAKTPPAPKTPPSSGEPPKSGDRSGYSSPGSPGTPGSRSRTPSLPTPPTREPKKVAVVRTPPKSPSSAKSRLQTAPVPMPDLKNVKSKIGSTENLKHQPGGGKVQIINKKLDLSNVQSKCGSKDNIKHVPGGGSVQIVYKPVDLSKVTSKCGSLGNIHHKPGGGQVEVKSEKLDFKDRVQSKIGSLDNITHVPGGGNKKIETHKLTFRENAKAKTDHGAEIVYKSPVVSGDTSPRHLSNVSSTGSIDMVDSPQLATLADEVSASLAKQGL
Assay: qHTS for Inhibitors of Tau Fibril Formation, Fluorescence Polarization; also: nearly all actives have a fitted effect of over 55% in size
Conditions: K18 P301L tau heparin fibrillization, Alexa594 FP, 6 h; series mostly up to 57.7 µM; activity, negative = inhibition: at the top concentration
Summary of the method: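 Human K18 P301L fragment (15 uM unlabeled plus 0.24 uM Alexa 594-labeled) in 100 mM sodium acetate pH 7 with compound, aggregation induced by 20 uM heparin for 6 hr at 37 C. ThT (30 uM) added for 1 hr, then Alexa 594 FP read.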
% is scaled to controls: 0 for no effect and ±100 for the full control effect; potency is read from the fitted curve at half-maximal effect; tags tell the direction and shape of the fitted curve.

SMILES | Potency | activity, negative = inhibition
CC(=O)Oc1c2c(c3c(c1CC=C(C)C)O[C@@]14C(=CC5CC1C(C)(C)OC4(C/C=C(\C)C(=O)O)C5=O)C3=O)OC(C)(CCC=C(C)C)C=C2 (stereo partly drawn) | active: 35.5 µM | 
Cn1c(N)c(C(=O)COC(=O)c2cccc(S(=O)(=O)N3CCCCC3)c2)c(=O)n(C)c1=O | inconclusive [inhibitor, partial curve] | 
Cc1ccc(NC2=C(Cl)C(=O)OC2OC(=O)c2ccccc2C)cc1 (stereo not drawn) | inconclusive [inhibitor, single point] | 
COC(=O)c1ccc(NC(=S)NCCc2ccc(OC)cc2)cc1 | inconclusive [inhibitor, single point] | 
O=C(COc1ccc(Cl)cc1)NCCc1csc(-c2cccc(F)c2)n1 |  | inactive: 4.26%
O=C1c2ccccc2C(=O)c2c(O)ccc(O)c21 | inconclusive [inhibitor, partial curve, poor fit] | 
COc1cnc(SCc2ccc(Cl)cc2Cl)nc1Cl | inconclusive [inhibitor, partial curve] | 
CCC1=C(OC(=O)N(CC)CC)N2C(=O)OC(=NCCc3c[nH]c4ccccc34)[C@]2(Cc2ccccc2)[C@H]2C1=CC[C@H]1C(=O)N(C)C(=O)[C@H]12 | inconclusive [activator, single point] | 
CCc1ccccc1Nc1nn2c(=O)c3ccc(C(=O)NCc4ccccc4Cl)cc3nc2s1 | inconclusive [inhibitor, single point] | 
CCOC(=O)N1CCC2(CC1)C(C#N)=C(N)Oc1n[nH]c(CSc3ccc(C)cc3)c12 | inconclusive [inhibitor, partial curve, poor fit] | 
CN(C)C(=O)NC(NC(=S)Nc1ccccc1)C(Cl)(Cl)Cl (stereo not drawn) | inconclusive [inhibitor, partial curve, poor fit] | 
COc1ccc(Cl)cc1NC(=O)Cn1cc(S(=O)(=O)Cc2cccc(Cl)c2)c2ccccc21 | inconclusive [inhibitor, partial curve] | 
CC(C)=CCC/C(C)=C/CO |  | inactive: 2.86%
COC(=O)c1ccc(NC(=O)Nc2ccc(OC)c(OC)c2)cc1 |  | inactive: 15.6%
Cc1ccc(-n2c(-c3ccccc3)c[n+]3c2CCc2ccccc2-3)c(C)c1 |  | inactive: -0.0706%
COc1ccc(N2CCN(C(=O)c3nn(-c4ccc(C)cc4)c(=O)n(C)c3=O)CC2)cc1 | inconclusive [activator, full curve, poor fit] | 
CN(c1cccc(NC(=O)c2ccc(Cl)c(S(=O)(=O)Nc3ccccc3)c2)c1)S(C)(=O)=O | inconclusive [inhibitor, single point] | 
CCOC(=O)c1cc(-c2ccc(OC)cc2)nn1Cc1ccccc1 | inconclusive [inhibitor, partial curve] | 
Cc1nn(Cc2c(Cl)cccc2Cl)c(Cl)c1/C=N/NC(=O)c1cccnc1 |  | inactive: 0.714%
O=Cc1ccccc1Oc1nc(N2CCOCC2)nc(N2CCOCC2)n1 | inconclusive [inhibitor, partial curve] | 
N/C(=N\c1nc(CSc2nc3ccccc3s2)cc(=O)[nH]1)Nc1ccc(F)cc1 | inconclusive [inhibitor, full curve, poor fit] | 
CSc1ccc(/C=N/N2CCN(Cc3ccccc3)CC2)cc1 |  | inactive: 11.8%
CCN(CC)c1ccc(NC(=O)Cn2c(C(C)NC(=O)c3ccccc3)nc3ccccc32)cc1 (stereo not drawn) |  | inactive: 9.81%

SMILES | Potency | activity, negative = inhibition
CC(=O)c1sc(NC(=O)COc2ccc(Cl)cc2Cl)nc1C | inconclusive [inhibitor, partial curve] | 
COCCn1c(SCC(=O)NCc2ccco2)nnc1C(C)C | inconclusive [inhibitor, single point] | 
CC1=CC(c2ccccc2)n2nc(NS(=O)(=O)c3ccc(C)cc3)nc2N1 (stereo not drawn) | inconclusive [inhibitor, partial curve] | 
O=C(O)c1ccc2nc(-c3ccco3)c(-c3ccco3)nc2c1 | active: 10 µM | 
COc1ccccc1CNS(=O)(=O)c1cccc(S(=O)(=O)N2CCOCC2)c1 | inconclusive [inhibitor, single point] | 
Cn1c(-c2sc3cc(C(F)(F)F)cnc3c2-c2ccccn2)n[nH]c1=S |  | inactive: -8.61%
O=C(NS(=O)(=O)c1ccc(F)cc1)O[C@@H]1C(=O)c2cc(Br)ccc2O[C@H]1c1ccc2c(c1)OCO2 | inconclusive [inhibitor, single point] | 
Cc1cc(C)c2nc(C(F)(F)F)nc(NCCCN3CCOCC3)c2c1 | inconclusive [inhibitor, partial curve] | 
O=C1c2oc3ccccc3c(=O)c2C(c2cccc(Br)c2)N1c1ccccn1 (stereo not drawn) |  | inactive: -10.2%
CNC(=O)c1ccc(NC(=O)COc2ccc(-c3nn(C)c(=O)c4ccccc34)cc2)cc1 | inconclusive [inhibitor, single point] | 
O=C(CN1C(=O)S/C(=C\c2ccccc2)C1=O)NNC(=O)c1ccccc1O | inconclusive [inhibitor, single point] | 
CCOC(=O)c1[nH]c2ccccc2c1NC(=O)c1cc(OCC)c(OCC)c(OCC)c1 |  | inactive: 10.1%
O=C(COC(=O)CC(c1ccccc1)c1ccccc1)Nc1cccc(F)c1 | inconclusive [inhibitor, partial curve] | 
Cc1ccc(-n2ncc3c(=O)[nH]c(SCC(=O)N4CCCC4)nc32)cc1C |  | inactive: -3.15%
O=C(NNc1ccc(O)cc1)c1ccc(Br)cc1 | inconclusive [inhibitor, partial curve] | 
COc1cnc(N(C)C)nc1Sc1cccc(Cl)c1 | inconclusive [inhibitor, single point] | 
O=C(c1ccccc1)N(Cc1ccco1)Cc1cccs1 |  | inactive: -3.84%
CCOC(=O)c1c(NC(=O)CSc2nnc(C)s2)sc2c1CCN(C)C2 | inconclusive [inhibitor, single point] | 
Cc1ccc(-n2ncc3c(N4CCN(C)CC4)ncnc32)cc1C |  | inactive: -4.84%
CCc1cccc(C)c1NC(=S)NCc1ccc2[nH]c(C)cc2c1 |  | inactive: 13.1%
CCOC(=O)c1nn(-c2ccccc2)c(=O)c2c(N)scc12 | inconclusive [inhibitor, full curve] | 
COc1ccc(OCC(=O)N2CCN(C(=O)c3cccc(OC)c3)CC2)cc1 |  | inactive: -1.01%
CSc1nc(=NC(C)=O)ss1 | inconclusive [inhibitor, partial curve] | 

SMILES | Potency | activity, negative = inhibition
COc1ccc(N(CC(=O)N2CCN(c3ccccc3F)CC2)S(=O)(=O)c2c(C)n[nH]c2C)cc1 | inconclusive [inhibitor, partial curve, poor fit] | 
COc1ccc(/C=N/NC(=O)c2nc(Cl)c(Cl)c(N)c2Cl)cc1COc1ccccc1F | inconclusive [inhibitor, single point] | 
O=C(NCc1cccs1)c1ccc([N+](=O)[O-])cc1 |  | inactive: 10.2%
COc1ccc(-n2ccnc(NCc3ccc(C)cc3)c2=O)cc1OC |  | inactive: -1.19%
CN(C)c1ccc(C(CNC(=O)c2c(F)cccc2Cl)N2CCOCC2)cc1 (stereo not drawn) |  | inactive: 9.65%
CC(=O)c1cc(NC(=O)c2ccc([N+](=O)[O-])cc2)c(=O)oc1C | inconclusive [inhibitor, partial curve] | 
COc1cc(OC)cc(C(=O)Nc2ccc3oc(-c4cccc5c(Br)cccc45)nc3c2)c1 | inconclusive [inhibitor, partial curve, poor fit] | 
CCCCOc1ccc(-c2c(C(=O)Nc3ccccc3)c(C)[nH]c(=S)c2C#N)cc1 |  | inactive: 0.299%
Cc1cc(OC(=O)C(C)(C)C)c([N+](=O)[O-])c(=O)[nH]1 | inconclusive [inhibitor, single point] | 
Cc1noc(C)c1S(=O)(=O)N(C)CC(=O)Nc1ccc(F)cc1 | inconclusive [inhibitor, single point] | 
CCCNC(=S)Nc1ccc(Oc2ccccc2)cc1 |  | inactive: -0.111%
N#CC1=C(N)Oc2n[nH]c(-c3cccs3)c2C1c1cccnc1 (stereo not drawn) | inconclusive [inhibitor, partial curve, poor fit] | 
CC(CCO)Nc1nc2c([nH]1)c(=O)n(C)c(=O)n2C (stereo not drawn) | inconclusive [inhibitor, single point] | 
CCOC(=O)CCN1C(=O)[C@@H]2[C@H]3C(=CC[C@H]2C1=O)C(=O)[C@H]1O[C@H]1[C@H]3O | inconclusive [inhibitor, partial curve] | 
Cc1ccc(-c2nnc(Nc3ccc(S(N)(=O)=O)cc3)c3ccccc23)cc1S(=O)(=O)N1CCCCC1 | inconclusive [inhibitor, partial curve] | 
COC(=O)c1c(NC(=O)CN2C(=O)c3ccccc3C2=O)sc(Cc2ccc3c(c2)OCO3)c1C | inconclusive [inhibitor, single point] | 
COc1ccc(Cl)cc1NC(=O)CN1CCc2ccccc21 |  | inactive: 2.36%
COc1cccc(C2=NNC(=NCc3ccccc3)SC2)c1 |  | inactive: 7.43%
NC(=O)NC(=O)COC(=O)c1cccc(NS(=O)(=O)/C=C/c2ccccc2)c1 |  | inactive: -18.6%
Cc1c(C(=O)NCCN(C)C)sc2nc3n(c(=O)c12)CCC3 | inconclusive [inhibitor, full curve, poor fit] | 
O=C(Nc1ccc(-c2noc(-c3ccccc3F)n2)cc1)c1cccs1 | inconclusive [inhibitor, partial curve] | 
Cc1c(C(=O)NN)[nH]c2ccc([N+](=O)[O-])cc12 |  | inactive: 4.27%
